Measured values reported in the supplement of paper PMC3334620.
Over roughly 33,000 sequences, “E-score (-0.5 to 0.5)” has its median near -0.016; the highest 2% begin near 0.32. This is one part of the list.

target: T1, Stp1 (UniProt B3LFK1); assay: PBM E-score (8-mer binding enrichment) (E-score (-0.5 to 0.5)); higher = stronger / more preferred TF binding; most listed sequences are background and not binding sites; conditions: protein concentration: 200 nM; construct: GST-full length
T1 sequence: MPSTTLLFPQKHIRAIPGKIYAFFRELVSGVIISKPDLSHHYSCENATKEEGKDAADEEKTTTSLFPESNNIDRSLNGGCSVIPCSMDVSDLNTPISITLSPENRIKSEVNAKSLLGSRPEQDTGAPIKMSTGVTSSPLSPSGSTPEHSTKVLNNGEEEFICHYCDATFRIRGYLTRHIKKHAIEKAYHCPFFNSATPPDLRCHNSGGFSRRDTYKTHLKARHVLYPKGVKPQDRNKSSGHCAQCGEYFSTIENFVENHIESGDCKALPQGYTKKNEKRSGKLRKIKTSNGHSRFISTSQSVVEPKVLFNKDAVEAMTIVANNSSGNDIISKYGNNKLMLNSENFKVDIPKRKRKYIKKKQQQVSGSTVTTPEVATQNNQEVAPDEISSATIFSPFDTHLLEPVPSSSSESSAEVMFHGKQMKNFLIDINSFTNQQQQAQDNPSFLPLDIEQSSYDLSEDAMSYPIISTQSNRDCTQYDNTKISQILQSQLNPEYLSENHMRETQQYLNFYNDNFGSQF
Procedure, shortened: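 Each ungapped eight-base word and its reverse complement, pooled, received an E-score from the Universal PBM Analysis Suite. Underlying scans, normalised with masliner, recorded fluorescent anti-GST bound to GST-tagged yeast transcription factors. These were applied at about 100-200 nM to universal all-10-mer Agilent arrays double-stranded by primer extension.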

Point of comparison: ATAAAATG, “PBM E-score” value 0.163. Against it:
- AGTCCTGG — lower, -0.184
- ATTAACGA — higher, 0.179
- CGACAACG — higher, 0.185
- AACTGCGG — higher, 0.173
- CCGCCGAG — lower, 0.083
- ATCTTACG — lower, 0.147
- AAGTTTGG — higher, 0.189
- AATAGAGG — lower, -0.00072
- ACCGCAAA — lower, 0.0936
- AATTCTTA — lower, -0.0838
- CCCGGGAA — lower, -0.209
- ATTCGGGA — lower, -0.0187
- CCATCGTA — lower, 0.0579
- AGTTTATC — higher, 0.249
- CTTTGCCA — lower, 0.058
- ATTGCGGC — higher, 0.283
- CTGGAGGC — lower, -0.0215
- ATTATCTG — lower, 0.0535
- GACAGACA — lower, 0.128
- AACATGTC — lower, 0.0331
- ACACGTCC — lower, -0.21
- CCGTCCGA — lower, 0.0655
- CCAGTGGG — lower, -0.202
- ATAGAGTC — lower, -0.143
- ACCTTTGC — lower, -0.133
- GGTACTTA — lower, -0.02
- AGGTTAAC — lower, 0.00379
- CATTGACG — lower, 0.0728
- CCGTAGCA — higher, 0.228
- GAACGAAA — lower, -0.0367
- CAGTAGCC — lower, 0.0177
- AAATCGCT — lower, -0.236
- AGAGTATG — lower, -0.303
- CGATACAG — lower, 0.0202
- CCAATTTC — lower, 0.0741
- AAGATCGC — lower, -0.0651
- CCGGGAAG — lower, -0.14
- GGAAATCA — lower, -0.0344
- CCCCAAAG — lower, -0.106
- AGGTGCAA — lower, -0.052
- GTCGAGAA — lower, 0.0529
- ATGGACAG — lower, -0.0793
- ATATCTCC — lower, 0.00413
- GTGAAGAA — lower, 0.16
- AGGGCGGG — lower, -0.054
- AGACCAAT — lower, -0.0691
- TACTTGAA — lower, 0.0539
- GCAGTACA — lower, 0.0135
- CTACCAAG — lower, -0.0321
- AAGGCCAG — lower, -0.13
- AGCGTACT — lower, -0.119
- ATATGTTG — lower, 0.129
- CAACGAAG — lower, -0.0658
- GAAGGGGC — lower, -0.189
- TGAGAACA — higher, 0.166
- CATCTTGG — lower, -0.137
- CATCGGCA — lower, 0.0516
- AGTGATAT — lower, -0.0944
- CGAAGTAC — lower, -0.0662
- ACACACAC — lower, 0.0566
- CGAGAATA — lower, 0.08
- GGATTACA — lower, -0.214
- ATTAAAAG — lower, 0.161
- ATAAAGAC — lower, -0.124
- ACTTATAG — lower, -0.0732
- AAGCGAGT — lower, 0.0645
- ATCGCCAT — higher, 0.193
- AAACGCGA — lower, 0.117
- GTCGCGTA — lower, 0.0619
- ATCCGCTC — lower, -0.0544
- ATTGACGC — higher, 0.208
- ACTTCGAA — lower, 0.134
- GCGCGTTA — higher, 0.188
- AGCGTCAA — lower, 0.0474
- AGAGTCAT — lower, -0.318
- ATCATCGG — lower, -0.048
- ACCCCCAC — lower, -0.246
- TAAGGGGA — lower, -0.249
- ATAACAAT — lower, -0.00077
- AAGGACCA — lower, -0.132
- ATATCGCA — lower, -0.0231
- AGCGGGAT — lower, 0.0317
- CGTGGTCA — lower, -0.0832
- ACTCTGGC — lower, -0.0685
- AATATTAC — lower, 0.121
